PubChem BioAssay AID760 (NMMLSC, 2007)
Hit rate of the full screen: of about 190,000 compounds, about 360 (0.19%) were called active. The shares of active, inactive and inconclusive entries below differ from those in the screen.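 Rule for the calls: active = GTP binding activity at least 20 points away from 100%, either lowered or raised; inconclusive = signal likely due to the compound's own green fluorescence; inactive = the rest.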

Target: Ras-related protein Rab-2A (Canis lupus familiaris) (UniProt P61105)
Experiment: Rab2 wt fluorescent GTP binding changes, either direction – biochemical, dog, bead-based flow cytometry, multiplex, primary screen (AID 760);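 note: 0% = beads with excess unlabeled GTP and 100% = no-compound control corrected for plate trend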
Details: GST-Rab2 wt beads, Bodipy-GTP binding, at 10 µM

SMILES | GTP binding activity
Cc1ccc(C(=O)N/N=C/c2cc(C)n(-c3ccc(Br)cc3)c2C)cc1[N+](=O)[O-] | inconclusive: 106%
O=C(NCCCCNC(=O)c1ccc(Cl)s1)c1ccc(Cl)s1 | inconclusive: 99%
Fc1ccc(OCc2nn3c(Cn4nnc5ccccc54)nnc3s2)cc1 | inconclusive: 92%
CCC(Sc1nc(-c2ccccc2)cc(=O)[nH]1)C(=O)O (stereo not given) | inactive: 93%
CN1CCc2c1nc1ccccc1c2N=C1CCCN1Cc1ccccc1 | inactive: 100%
CC1CC(C)(C)NC(=S)N1CC(=O)NCc1ccc(Cl)cc1 (stereo not given) | inconclusive: 101%
COc1ccc(CNc2nc3ccccc3n2Cc2ccc(C)cc2)cc1OC | active: 123% [activator]
Cc1ccc2nc(CSc3nc(C)cc(C)c3C#N)[nH]c2c1 | inactive: 101%
O=C(Nc1cccc(-c2nc3ncccc3o2)c1)c1sc2ccccc2c1Cl | inconclusive: 81%
CCN(CC)C(=S)Nc1ccc2nc3n(c(=O)c2c1)CCCCC3 | inactive: 104%
Brc1ccc(CSc2nnc(-c3ccccn3)n2Cc2ccco2)cc1 | inconclusive: 102%
CCOc1ccc(C(=O)N2CCN(c3cccc(C)c3C)CC2)cc1 | inconclusive: 86%
CCN(CC)C(=O)COc1ccc(S(=O)(=O)N2CCOCC2)cc1 | inconclusive: 110%
Cc1ccc(C(=O)N2CCN(c3ncccn3)CC2)cc1S(=O)(=O)N1CCCCC1 | inactive: 100%
O=c1cnnc(N/N=C/c2c[nH]c3ccccc23)[nH]1 | inconclusive: 90%
C=C(C(=O)c1ccccc1)C(C)C(=C)C(=O)c1ccccc1 | inactive: 94%
COc1ccc(C(=O)Nc2cc(Cl)ccc2Cl)c(OC)n1 | inconclusive: 103%
O=[N+]([O-])c1cc(S(=O)(=O)NC2=NCCCCC2)ccc1NCC1CCCCC1 | inactive: 102%
CCc1ccc(N2C(=O)CN(Cc3cccs3)C2=S)cc1 | inactive: 91%
CS(=O)(=O)c1ccc(C(=O)OCC(=O)NC(=O)C2CCCCC2)cc1[N+](=O)[O-] | inactive: 82%
O=C(NCc1ccccc1)C1CCN(S(=O)(=O)c2ccc(Cl)cc2)CC1 | inactive: 100%
O=C(O)CCCN1C(=O)/C(=C\c2ccco2)SC1=S | inactive: 97%
CCCSc1nc(O)c(C(c2ccc(OC)c(O)c2)c2c(O)nc(SCCC)n(C)c2=O)c(=O)n1C | inconclusive: 82%
CC(C)(C)NC(=O)c1ccc2nsnc2c1 | inconclusive: 450%

SMILES | GTP binding activity
O=C1CN(C(=O)/C=C/c2cccc(Cl)c2)c2ccccc2N1 | inconclusive: 82%
CCCCN(C(=O)NC(=O)Nc1nc2ccc(OC)cc2s1)S(C)(=O)=O | inconclusive: 79%
Cn1c(N)cc(-c2ccc(F)cc2)c(C#N)c1=O | inactive: 97%
CCOc1c(Cl)cc(/C=N/NC(N)=S)cc1OC | inactive: 100%
O=C(O)CCC(=O)N1CCc2cc(S(=O)(=O)N3CCCCC3)ccc21 | inconclusive: 104%
Cc1sc2nc3ccc(NCc4ccco4)nn3c(=O)c2c1C | active: 27%
CCOC(=O)c1sc2nccc(N(C)C)c2c1N=CN(C)C | inconclusive: 103%
CCn1c(=O)c(C(=O)NNS(=O)(=O)c2ccc(Br)cc2)c(O)c2ccccc21 | inconclusive: 84%
COc1ccc(OC)c(/C=C/C(=O)OCC(=O)Nc2ccc3c(c2)OCCO3)c1 | inconclusive: 91%
O=S1(=O)CCC(NC(=S)N2CCOCC2)C1 (stereo not given) | inactive: 100%
COc1ccc(C(=O)CSc2nnnn2C)c(OC)c1 | inactive: 98%
CCOC(=O)C1=C(N)OC2=C(C(=O)CCC2)C1c1ccco1 (stereo not given) | inactive: 101%
CC(C(=O)NC(C)(C)C)N1C(=O)c2cccc3cccc(c23)C1=O (stereo not given) | inconclusive: 87%
CC(C)c1[nH]nc2c1C(Cc1ccccc1)C(C#N)=C(N)O2 (stereo not given) | inconclusive: 94%
CCN(C(=O)Cc1c(C(=O)O)[nH]c2ccccc12)c1ccc(OC)cc1 | inconclusive: 93%
COc1cc(/C=C(\C#N)c2[nH]nc(N)c2C#N)cc(OC)c1O | inconclusive: 88%
CN1CCN(CC(=O)N2c3ccccc3C(C)(c3ccccc3)CC2(C)C)CC1 (stereo not given) | inconclusive: 102%
C/C(=N/NC(=O)c1ccoc1C)c1cccc(NC(=O)C2CC2)c1 | inconclusive: 102%
NC(=O)c1ccccc1NC(=S)NC(=O)CCc1ccccc1 | inconclusive: 104%
N#CCCN1CCN(S(=O)(=O)c2cc(Cl)ccc2Cl)CC1 | inconclusive: 93%
NC(=O)CSc1cn(Cc2ccccc2)c2ccccc12 | inactive: 95%
COc1cc(/C=C/C(=O)OCC(=O)NCCN2C(=O)CSC2=O)ccc1OC(F)F | inactive: 103%
O=c1c2cc(NC(=S)NC3CC3)ccc2nc2n1CCCCC2 | inconclusive: 94%
CO/N=C/NC(=O)NOCc1ncc(C(F)(F)F)cc1Cl | inactive: 115%

SMILES | GTP binding activity
N#Cc1c(N)nc2c3c(sc(=N)c2c1N)NC(=O)CC3c1ccccc1 (stereo not given) | inconclusive: 81%
O=c1nc(NCc2ccco2)sc2ncccc12 | inconclusive: 94%
COc1ccc(/C=C/C(=O)C2C(=O)C=C(C)OC2=O)cc1O (stereo not given) | inconclusive: 96%
CN1CCC2(CC1)C1CN(C)CC=C1C(C#N)=C(N)C2(C#N)C#N (stereo not given) | inconclusive: 94%
Cc1csc(NC(=O)C2CCN(S(=O)(=O)c3cccs3)CC2)n1 | inconclusive: 93%
COc1ccc(OC)c(NC(=O)CSc2ccc3nnc(-c4cccnc4)n3n2)c1 | inactive: 97%
Cc1nn(-c2ccccc2)c2sc(-c3nnc(SCC(=O)O)o3)cc12 | inactive: 96%
CC1=C(C(=O)OCc2ccc(C)cc2)C(c2ccc(O)c([N+](=O)[O-])c2)NC(=O)N1 (stereo not given) | inconclusive: 90%
Cc1cc(=O)n2nc(N3CCCC3C(=O)NCCCN3CC(C)CC(C)C3)sc2n1 (stereo not given) | inconclusive: 105%
CCCN1C(=O)C(O)(C2COC(C)(C)CC2=O)c2ccccc21 (stereo not given) | inconclusive: 96%
CCOc1cc(C#N)c(NC(=O)Cn2nnc3ccccc32)cc1OCC | inconclusive: 97%
CN1CCN(CCC(=O)N2c3ccccc3Sc3ccc(Cl)cc32)CC1 | inactive: 98%
COc1cccc(Nc2ccccc2C(=O)O)c1 | active: 125% [activator]
COc1ccc(CNc2nc3nc(C)cc(C)n3n2)cc1 | inconclusive: 101%
O=C(CSc1nnc2c3ccccc3c3ccccc3c2n1)Nc1ccccc1 | inconclusive: 90%
COc1ccccc1NC(=O)c1c(Nc2ccccc2F)sc(C(=O)Nc2cccc(Cl)c2)c1N | inactive: 99%
Cc1ccc(N/N=C2/CCCNC2=O)cc1 | inconclusive: 95%
Cc1ccc(-c2nc3ccccc3s2)cc1NC(=S)NC(=O)c1cccc2ccccc12 | inconclusive: 93%
COc1ccc(N(CC(=O)N/N=C/c2cc(Br)c(C)o2)S(=O)(=O)c2ccc(NC(C)=O)cc2)cc1 | inconclusive: 89%
CCn1cnc2sc(C)c(C)c2c1=O | inconclusive: 105%
Cc1cc(C)nc(NC(=O)c2ccc(COc3ccccc3Cl)cc2)c1 | inactive: 94%
O=C(NC12CC3CC(CC(C3)C1)C2)N1CCN(C(=O)C2CCCO2)CC1 (stereo not given) | inconclusive: 105%
O=C(c1n[nH]c(=O)c2ccccc12)N1CCN(C2c3ccccc3-c3ccccc32)CC1 | inconclusive: 38%
O=C(CCc1ccccc1)c1nnc(-c2ccccc2)o1 | inactive: 97%

SMILES | GTP binding activity
CS(=O)(=O)N(CC(=O)NCCSc1ccccn1)c1ccc(F)cc1 | inconclusive: 98%
FC(F)Oc1cccc(NC(=S)N2CCN(c3ccccn3)CC2)c1 | inactive: 100%
CCc1ccc2[nH]c(=O)c(CN(Cc3ccc4c(c3)OCO4)C(=O)c3ccco3)cc2c1 | inconclusive: 88%
CC1CCCCN1C(=O)CSc1nnc(CSc2ncccn2)n1C (stereo not given) | inactive: 101%
O=S1(=O)N=C(N(CCO)/N=C/c2ccncc2)c2ccccc21 | active: 66%
O=C(CSc1nnnn1-c1ccccc1)Nc1nsc(-c2ccc(Cl)cc2)n1 | inconclusive: 105%
CCCSc1nnc(CN2CCOCC2)n1C | inconclusive: 104%
O=C(NC1=NCCS1)c1ccccc1OCc1ccccc1Cl | inactive: 97%
COc1ccccc1OCCn1cc(C(=O)O)c2ccccc21 | inactive: 114%
CC1CCN(C(C(=O)O)c2ccccc2)CC1 (stereo not given) | inactive: 97%
Cc1ccc(-c2ccc(/C=C3/NC(=O)NC3=O)o2)cc1[N+](=O)[O-] | inconclusive: 87%
COC(=O)C1CC(c2ccc(Cl)cc2)=NO1 (stereo not given) | inactive: 98%
COCCNC(=O)NC(=O)COC(=O)C1(c2ccc(Cl)cc2)CC1 | inconclusive: 93%
CCCC/C(O)=C1\C(=O)CC(C)(C)CC1=Nc1ccc(N)cc1 | inactive: 96%
O=C(COC(=O)c1cccc(C(=O)OCC(=O)NC2CC2)n1)NC1CC1 | inactive: 95%
COc1cc([N+](=O)[O-])ccc1N=Nc1c(N)[nH]n(-c2ccccc2)c1=O | inactive: 80%
CC(C)n1c(C(O)c2ccccc2)nc2ccccc21 (stereo not given) | inconclusive: 103%
N#CCCCCN1c2cccc3cccc(c23)S1(=O)=O | inconclusive: 93%
O=C(Nc1ccc(-c2ccc([N+](=O)[O-])cc2)cc1)c1ccccc1F | inconclusive: 100%
Cc1ccc(Oc2ncccc2/C=N/OCc2ccc(Cl)c(Cl)c2)cc1 | inconclusive: 89%
Cc1onc(-c2c(Cl)cccc2Cl)c1C(N)=O | inconclusive: 105%
CSc1cccc(NC(=S)N2CCC(N(C)C3CCCC3)CC2)c1 | inactive: 103%
COc1cccc(CN(C)CC(=O)Nc2sc3c(c2C#N)CCC3)c1 | inactive: 92%
